{
  "source": "PubChem BioAssay AID504333",
  "about": "(National Center for Advancing Translational Sciences (NCATS), 2011)",
  "note": "Screen size: about 360,000 compounds; about 16,000 (4.4%) were called active. This list was built around the results that the source calls inconclusive (neither active nor inactive); the mix of calls is not that of the screen. Calls follow the shape of the dose curve; as a rule, active = well fitted inhibition curve with a large enough effect; inconclusive = small, poorly fitted or top-dose-only effect; inactive = no such curve, though single readings can be large or run the other way. Potencies beside an inconclusive call are fits to weak or partial responses and may not hold up. Potency is read from the fitted curve at half-maximal effect; tags tell the direction and shape of the fitted curve.",
  "data": [
    {"target": "Bromodomain adjacent to zinc finger domain protein 2B (Homo sapiens) (UniProt Q9UIF8)", "sequence (Q9UIF8 whole entry, looked up, the tested form may be a part)": "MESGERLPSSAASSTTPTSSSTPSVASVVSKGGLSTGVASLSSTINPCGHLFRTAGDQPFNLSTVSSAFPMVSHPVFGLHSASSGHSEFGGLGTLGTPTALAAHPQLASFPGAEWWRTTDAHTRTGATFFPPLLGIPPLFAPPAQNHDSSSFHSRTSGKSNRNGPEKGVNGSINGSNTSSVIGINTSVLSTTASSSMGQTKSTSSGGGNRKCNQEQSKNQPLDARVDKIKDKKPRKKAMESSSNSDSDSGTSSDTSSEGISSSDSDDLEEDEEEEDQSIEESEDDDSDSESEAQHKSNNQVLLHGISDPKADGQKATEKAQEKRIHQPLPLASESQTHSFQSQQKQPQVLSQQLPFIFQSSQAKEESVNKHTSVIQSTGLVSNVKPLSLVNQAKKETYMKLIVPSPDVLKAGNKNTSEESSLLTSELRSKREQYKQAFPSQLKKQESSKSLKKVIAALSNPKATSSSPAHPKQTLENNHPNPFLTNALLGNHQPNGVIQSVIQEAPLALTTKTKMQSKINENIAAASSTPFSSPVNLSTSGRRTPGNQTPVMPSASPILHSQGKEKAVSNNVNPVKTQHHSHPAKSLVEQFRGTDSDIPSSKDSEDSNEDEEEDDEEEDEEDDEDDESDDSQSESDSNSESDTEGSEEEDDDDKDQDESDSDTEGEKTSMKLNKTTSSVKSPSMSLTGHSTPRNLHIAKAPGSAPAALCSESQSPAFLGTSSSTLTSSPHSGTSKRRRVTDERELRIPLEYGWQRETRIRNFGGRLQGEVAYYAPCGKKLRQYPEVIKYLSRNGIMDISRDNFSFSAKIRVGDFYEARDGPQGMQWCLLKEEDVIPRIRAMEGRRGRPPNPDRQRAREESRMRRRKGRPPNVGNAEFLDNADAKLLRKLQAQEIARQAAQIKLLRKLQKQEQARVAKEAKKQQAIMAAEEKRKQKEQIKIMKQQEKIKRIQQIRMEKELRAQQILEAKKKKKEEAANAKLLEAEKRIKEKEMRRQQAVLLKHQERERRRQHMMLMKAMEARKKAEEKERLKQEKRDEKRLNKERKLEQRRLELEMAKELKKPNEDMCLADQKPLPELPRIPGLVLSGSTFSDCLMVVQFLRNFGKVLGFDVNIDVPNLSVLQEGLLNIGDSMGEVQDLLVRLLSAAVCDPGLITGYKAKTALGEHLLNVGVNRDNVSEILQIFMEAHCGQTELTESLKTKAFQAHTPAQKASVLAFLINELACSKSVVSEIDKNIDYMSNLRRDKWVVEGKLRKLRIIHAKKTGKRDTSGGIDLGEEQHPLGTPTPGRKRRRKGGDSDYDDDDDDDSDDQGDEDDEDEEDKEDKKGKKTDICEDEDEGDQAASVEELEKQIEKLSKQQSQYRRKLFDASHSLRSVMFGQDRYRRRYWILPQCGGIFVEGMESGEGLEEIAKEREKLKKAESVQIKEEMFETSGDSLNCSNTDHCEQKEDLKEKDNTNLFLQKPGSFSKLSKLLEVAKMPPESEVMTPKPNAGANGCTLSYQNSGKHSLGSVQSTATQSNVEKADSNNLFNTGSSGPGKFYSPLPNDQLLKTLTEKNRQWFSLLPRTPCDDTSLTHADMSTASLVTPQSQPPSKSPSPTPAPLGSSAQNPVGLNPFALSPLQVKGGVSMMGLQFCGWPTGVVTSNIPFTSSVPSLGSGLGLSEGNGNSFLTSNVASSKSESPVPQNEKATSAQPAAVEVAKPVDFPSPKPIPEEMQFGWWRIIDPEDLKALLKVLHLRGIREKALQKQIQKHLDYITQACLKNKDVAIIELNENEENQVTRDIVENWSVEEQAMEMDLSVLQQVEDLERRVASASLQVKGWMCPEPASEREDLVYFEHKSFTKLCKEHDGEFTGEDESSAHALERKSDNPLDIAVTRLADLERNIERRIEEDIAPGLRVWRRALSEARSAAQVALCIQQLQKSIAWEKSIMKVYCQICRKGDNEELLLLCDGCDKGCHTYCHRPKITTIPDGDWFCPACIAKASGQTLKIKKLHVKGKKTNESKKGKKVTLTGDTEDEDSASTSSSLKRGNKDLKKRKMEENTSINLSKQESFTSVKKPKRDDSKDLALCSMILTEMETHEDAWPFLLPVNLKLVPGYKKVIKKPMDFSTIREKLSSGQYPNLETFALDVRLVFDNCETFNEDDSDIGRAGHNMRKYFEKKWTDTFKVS", "assay": "qHTS Assay for Inhibitors of BAZ2B; also: nearly all actives have a fitted effect of over 60% in size", "settings": "AlphaScreen BAZ2B-H3K14Ac peptide displacement; series mostly up to 114 µM", "summary_of_the_method": "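AlphaScreen luminescence quantifies BAZ2B engagement of H3K14Ac peptide; the protein and biotinylated peptide are both at 50 nM final, buffer PBS pH 7.4 with 0.01% Tween-20, all steps at room temperature.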", "values": [
      {"smiles": "CCOc1ccc(NC(=S)NCCCN2CCN(c3ccc(OC)cc3)CC2)cc1", "Potency": "active: 35.5 µM"},
      {"smiles": "C=CCOC(=O)C(=O)/C=C/c1csc2ccccc12", "Potency": "inconclusive: 70.8 µM [inhibitor, single point]"},
      {"smiles": "CCc1ccc(C(=O)c2cn(CC(=O)Nc3ccc4c(c3)OCCO4)c3ccc(CC)cc3c2=O)cc1", "Potency": "active: 79.4 µM"},
      {"smiles": "O=C(CN1CCN(c2ccccn2)CC1)Nc1ccc(Oc2ccccc2)cc1", "Potency": "inconclusive: 79.4 µM [inhibitor, single point]"},
      {"smiles": "CN1C2=CC=CC=CC2=[N+](C)C12C([N+](=O)[O-])=CC(=[N+]([O-])[O-])C=C2[N+](=O)[O-]", "note": "(configuration not stated)", "Potency": "inactive"},
      {"smiles": "COc1ccc(Br)cc1CNC(=O)CN1C(=O)CCCc2ccccc21", "Potency": "inactive"},
      {"smiles": "O=C(c1ccccc1Oc1ccccc1)N1CCN(c2ccc(F)cc2)CC1", "Potency": "inconclusive: 89.1 µM [inhibitor, single point]"},
      {"smiles": "CCC(C)OC(=O)C1=C(C)NC2=C(C(=O)C(C(=O)OC)C(C)C2)C1c1ccc(N(C)C)cc1", "note": "(configuration not stated)", "Potency": "inconclusive: 50.1 µM [inhibitor, partial curve]"},
      {"smiles": "Cc1ccc(NC(=O)CC2Oc3ccccc3NC2=O)c(C)c1", "note": "(configuration not stated)", "Potency": "inactive"},
      {"smiles": "CC(=O)Oc1ccc2ccccc2c1C(NC(=O)C(C)C)c1cccc([N+](=O)[O-])c1", "note": "(configuration not stated)", "Potency": "inconclusive: 100 µM [inhibitor, single point]"},
      {"smiles": "CCCN(CCO)Cc1cccc(Cl)c1", "Potency": "inconclusive: 79.4 µM [inhibitor, single point]"},
      {"smiles": "CN(C)c1ccc(N=Nc2ccccc2C(=O)OCC(=O)N(C)C2CCCCC2)cc1", "Potency": "active: 8.91 µM"},
      {"smiles": "CN(C)c1ccc(-c2nc3ccccc3n2C)cc1", "Potency": "inconclusive: 89.1 µM [inhibitor, single point]"},
      {"smiles": "C[N+]1(CCOc2ccc([N+](=O)[O-])cc2)CCOCC1", "Potency": "inconclusive: 100 µM [inhibitor, single point]"},
      {"smiles": "Cc1cccc(NS(=O)(=O)c2cccc(C(=O)N3CCCC3)c2)c1", "Potency": "inconclusive: 0.708 µM [inhibitor, full curve, poor fit]"},
      {"smiles": "CCc1cc2ccc(C)cc2nc1SCC(=O)Nc1cc(OC)c(OC)cc1C(=O)O", "Potency": "inconclusive: 89.1 µM [inhibitor, single point]"},
      {"smiles": "Cc1cccc(Nc2nc(NCc3ccco3)nc(N3CCOCC3)n2)c1", "Potency": "inconclusive: 79.4 µM [inhibitor, single point]"},
      {"smiles": "Cc1ccc(C)c(OCCSc2nnc(-c3cccnc3)n2N)c1", "Potency": "inactive"},
      {"smiles": "O=C(COC(=O)c1ccc(Sc2ccccc2)c([N+](=O)[O-])c1)NC1CCCc2ccccc21", "note": "(configuration not stated)", "Potency": "inconclusive: 100 µM [inhibitor, single point]"},
      {"smiles": "S=C(Nc1ccc(Oc2ccccc2)cc1)Nc1cccnc1", "Potency": "inactive"},
      {"smiles": "CCCC1=C(C(=O)OCC)C(c2ccc(N(C)C)cc2)n2ncnc2N1", "note": "(configuration not stated)", "Potency": "inconclusive: 35.5 µM [inhibitor, partial curve]"},
      {"smiles": "CCCCc1ccc(-c2nc(N)n[nH]2)cc1", "Potency": "inactive"},
      {"smiles": "Brc1ccc(N=NNc2ccccc2)cc1", "Potency": "active: 39.8 µM"},
      {"smiles": "CCn1c2ccccc2c2cc(CN3CCN(Cc4ccc(OC)c(OC)c4)CC3)ccc21", "Potency": "active: 44.7 µM"},
      {"smiles": "CCCn1c(/C=C/c2ccccc2)nc2ccccc21", "Potency": "inactive"},
      {"smiles": "Cc1cc(C(=O)N2CCc3c([nH]c4ccccc34)C2c2cccc(Cl)c2)nn1C", "note": "(configuration not stated)", "Potency": "inconclusive: 89.1 µM [inhibitor, single point]"},
      {"smiles": "COc1ccc(C2C(C#N)=C(N)Oc3cccc(O)c32)cc1", "note": "(configuration not stated)", "Potency": "inactive"},
      {"smiles": "COCCNC(=S)N/N=C(\\C)c1ccc(Cl)c(Cl)c1Cl", "Potency": "inconclusive: 44.7 µM [inhibitor, partial curve]"},
      {"smiles": "COc1cc(/C=C2/SC(=S)N(CCC(=O)Nc3ccc(C(=O)O)cc3)C2=O)cc(OC)c1OC", "Potency": "inconclusive: 56.2 µM [inhibitor, partial curve, poor fit]"},
      {"smiles": "COc1ccc(N2CCN(C(=O)CSc3nc4ccccc4nc3Cc3ccc(Cl)cc3)CC2)cc1", "Potency": "inconclusive: 10 µM [inhibitor, full curve]"},
      {"smiles": "CC(C)N1CCc2c(sc(NC(=O)c3ccc(S(=O)(=O)N4CCCCC4C)cc3)c2C(N)=O)C1", "note": "(configuration not stated)", "Potency": "active: 50.1 µM"},
      {"smiles": "COC(=O)C(C)Sc1nnc(Cc2cc(=O)[nH]c(=O)[nH]2)n1-c1ccc(Cl)cc1", "note": "(configuration not stated)", "Potency": "inactive"},
      {"smiles": "COCc1ccc2oc(C(=O)O)cc2c1", "Potency": "inconclusive: 89.1 µM [inhibitor, single point]"},
      {"smiles": "CCc1cc(=O)oc2c(CNCc3ccccc3F)c(O)c(Cl)cc12", "Potency": "inconclusive: 79.4 µM [inhibitor, single point]"},
      {"smiles": "C/C(=N\\NC(=S)NCCc1ccccc1)c1ccc(C)cc1", "Potency": "inconclusive: 79.4 µM [inhibitor, single point]"},
      {"smiles": "COCCSc1nnc(NC(=O)C2CCCCC2)s1", "Potency": "inactive"},
      {"smiles": "CC1N(C)c2cc(NC(=O)c3cccs3)c(P(=O)(Nc3ccc([N+](=O)[O-])cc3)N3CCOCC3)cc2C1(C)C", "note": "(configuration not stated)", "Potency": "inconclusive: 14.1 µM [inhibitor, full curve, poor fit]"},
      {"smiles": "CCOc1ccc(/C=N/N2CCN(Cc3ccccc3)CC2)cc1", "Potency": "active: 50.1 µM"},
      {"smiles": "COc1ccc(C)cc1NC(=O)c1ccc2nc(Cc3ccccc3)oc2c1", "Potency": "inactive"},
      {"smiles": "CCOc1ccccc1NC(=O)C1=C(C)Nc2ncnn2C1c1sccc1C", "note": "(configuration not stated)", "Potency": "inconclusive: 79.4 µM [inhibitor, single point]"},
      {"smiles": "CCCCCCCCCCCCCCCC[n+]1cccc2ccccc21", "Potency": "active: 50.1 µM"},
      {"smiles": "COc1ccc(NC(=S)N2CCN(C(=O)c3ccccc3)CC2)cc1", "Potency": "inconclusive: 89.1 µM [inhibitor, single point]"},
      {"smiles": "O=c1c(N2CCc3ccccc3C2)csc2ccc(F)cc12", "Potency": "inactive"},
      {"smiles": "CCOc1ccc(N(CC)C(=O)c2noc3c2COc2ccc(C)cc2-3)cc1", "Potency": "inactive"},
      {"smiles": "COC(=O)c1ccc(NS(=O)(=O)c2ccc(Cl)cc2)o1", "Potency": "inconclusive: 63.1 µM [inhibitor, partial curve, poor fit]"},
      {"smiles": "CC(=O)/C(=N\\Nc1ccc(C)cc1)Sc1nncn1C", "Potency": "inactive"},
      {"smiles": "Cc1ccc(S(=O)(=O)c2nnn3c2nc(NC2CCN(Cc4ccccc4)CC2)c2ccccc23)cc1C", "Potency": "inconclusive: 63.1 µM [inhibitor, single point]"}
    ]}
  ]
}
